From paper PMC7819943, “Rice protein-binding microarrays: a tool to detect cis-acting elements near promoter regions in rice” come the findings set out here.

Some of the results follow.

This assay has as its target T1, OsWOX13 (Oryza sativa, UniProt Q5QMM3 1-267).
T1 sequence: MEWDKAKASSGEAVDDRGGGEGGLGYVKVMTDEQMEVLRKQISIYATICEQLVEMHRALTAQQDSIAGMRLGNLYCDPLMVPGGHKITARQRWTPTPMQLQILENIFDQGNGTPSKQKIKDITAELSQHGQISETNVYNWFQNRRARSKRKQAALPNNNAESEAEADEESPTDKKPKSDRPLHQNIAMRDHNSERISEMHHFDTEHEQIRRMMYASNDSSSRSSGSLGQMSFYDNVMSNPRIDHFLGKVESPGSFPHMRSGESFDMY
The assay is described as follows: protein-binding microarray (RPBM); PBS, 2% BSA, 51.3 ng/ul salmon testes DNA, 50 uM zinc acetate, 200 nM TF, 25 C, 1 h; high values mean tight binding. Conditions: protein: recombinant; tags: N-terminal polyhistidine and DsRed monomer fusion (pET32a); label: CyDye5-dUTP incorporated in the synthesized complementary strand; 3' TTTTT single-stranded linker to array surface; dsDNA, one strand shown. Put shortly:
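Transcription factors were each fused at the N-terminus to a polyhistidine tag plus DsRed and expressed in E. coli BL21-CodonPlus before Ni–NTA purification. Binding to a double-stranded custom Agilent array was carried out with 200 nM protein at 25 °C for 1 h in PBS, 2% BSA, salmon testes DNA and 50 µM zinc acetate. The binding signal is per-feature fluorescence intensity, in arbitrary units, on an Axon 4000B scanner.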
For the sequence “GTCAATCCACTGTCAATTTCTCTTGGTTCTGAATTTCAGTCGGAGTCACCTAGTGCAG”, the binding signal is 10200 fluorescence intensity (a.u.).
The value for “TAATAATAAAACAAATTACAGATTCTACCTATAAACTGCGCGGAGTCACCTAGTGCAG” was 7190 fluorescence intensity (a.u.); that for “TAGATTGATTTCTAATTTACAGATTAATGCGCTAGTATTTCGGAGTCACCTAGTGCAG” was 51100 fluorescence intensity (a.u.).
On to “ATATTTTAATTGGATCATCATCGTCGTTAGTCCGTCCTCACGGAGTCACCTAGTGCAG”, for which the binding signal was 14900 fluorescence intensity (a.u.).
The value for “CTATCAATAATTAAAATGTGTGCCTTTTCACTATCTTTACCGGAGTCACCTAGTGCAG” was 12900 fluorescence intensity (a.u.).
“AAGATTTAATTGTAATGAATCTAACAACATAATTTGTTCACGGAGTCACCTAGTGCAG”: the binding signal is 32800 fluorescence intensity (a.u.).
Turning to “TTTAGTGAACGATTTGATTGTTGGGGTGAGACAGGCCCAGCGGAGTCACCTAGTGCAG”, the binding signal is 5530 fluorescence intensity (a.u.).
Then “CACTACAGCCTGAAGCTTGATTGGCAGATCATCTAAAATACGGAGTCACCTAGTGCAG”, with 8480 fluorescence intensity (a.u.); and “TGGCCAAATTCTGTCAATTGCATTTGATGGAGCTGGGCTTCGGAGTCACCTAGTGCAG”, with 11200 fluorescence intensity (a.u.); and “ATGCACAATTTAAAACTAATCATGCATTAATGAAACTGTCCGGAGTCACCTAGTGCAG”, with 7400 fluorescence intensity (a.u.).
Then “GAAAGTGTGATTGATATTGATTCCTCTTAGCTAGGCTGCACGGAGTCACCTAGTGCAG”, with 43500 fluorescence intensity (a.u.).
Then “TCTTTTAATTTTGTCATGGCTAAATTACTTGGCAGATGAACGGAGTCACCTAGTGCAG”, with 11000 fluorescence intensity (a.u.); and “ACATAATCACAAAATTTTACATTCAACTTACCCGATAATCCGGAGTCACCTAGTGCAG”, with 7740 fluorescence intensity (a.u.).
As for “GCTAAACGTGAATTGTTTCAGTCCAGAACCAGACCATTGGCGGAGTCACCTAGTGCAG”, the binding signal is 3390 fluorescence intensity (a.u.).
The value for “AATGCTTAATTATGTAAATTTGCAACCTATATATAAGACACGGAGTCACCTAGTGCAG” was 25100 fluorescence intensity (a.u.); that for “GCTGATGACTTTTCTCCCGGTTTCATATTTTCTTTTAGAACGGAGTCACCTAGTGCAG” was 8420 fluorescence intensity (a.u.).
Then “ATATATATATATATATATATATATATATATATACACAAGACGGAGTCACCTAGTGCAG”, with 18900 fluorescence intensity (a.u.); and “GATGATTGATTGGGTTGGTTGGAACGTGCGATGGAATGATCGGAGTCACCTAGTGCAG”, with 65400 fluorescence intensity (a.u.); and “TAAACTACTTAATTAGCCATGTATAACATGTTAGATGTGTCGGAGTCACCTAGTGCAG”, with 5140 fluorescence intensity (a.u.).
Then “CGGCACGAGCTGAGCTGATTGATCGGTGCATATGCATTCACGGAGTCACCTAGTGCAG”, with 5710 fluorescence intensity (a.u.); and “AAGTGATTGAAATTTAATTCATGATCCTAAACCATACAACCGGAGTCACCTAGTGCAG”, with 53200 fluorescence intensity (a.u.).
“AGTAATTATTAATTCTTTTCCTATTATTTGATTCATTGTTCGGAGTCACCTAGTGCAG”: the binding signal was 29800 fluorescence intensity (a.u.).
The value for “TAGTATTAGATGGATTGTTAAACTTTTAGGGCCAGTTCGCCGGAGTCACCTAGTGCAG” was 4800 fluorescence intensity (a.u.); that for “GGGAACAAATTTTAGATAAGCCTGGATTGGAAAGAGAGTGCGGAGTCACCTAGTGCAG” was 4130 fluorescence intensity (a.u.).
The value for “CCCTCTATAATTAGTGACTTGTAACCTCTTCTTCCCTTCCCGGAGTCACCTAGTGCAG” was 12300 fluorescence intensity (a.u.).
Then “TGTTCATTTTATTAATCATGTGTTTTAAACAAGCCCCTTACGGAGTCACCTAGTGCAG”, with 6940 fluorescence intensity (a.u.).
Regarding “CCAAATTTACAGCTATATAACTCGCCTCCTCGATCTTCTCCGGAGTCACCTAGTGCAG”, the binding signal is 7870 fluorescence intensity (a.u.).
Regarding “TCCTAATTTCACCATTATCTTGAAGCTCCACTTGCTACCACGGAGTCACCTAGTGCAG”, the binding signal is 13200 fluorescence intensity (a.u.).
The value for “TTCTGCTGCACCTAATTAATTAAATTTCCCCGCTATAATTCGGAGTCACCTAGTGCAG” was 11300 fluorescence intensity (a.u.); that for “CAAGTAAATTGGAACACCAAAATGGAGTTGCGGCGGCCGACGGAGTCACCTAGTGCAG” was 3610 fluorescence intensity (a.u.).
“TGATAATTTTCGATGGTCATCGGTGAAACTAAAAGGTTCCCGGAGTCACCTAGTGCAG”: the binding signal was 4960 fluorescence intensity (a.u.).
In the case of “AAATTTTCTTTAATTGATCCGACTCCACCAAGAACACAACCGGAGTCACCTAGTGCAG”, the binding signal is 14100 fluorescence intensity (a.u.).
For “TTTGATAGTACTAAACAACATTAGGGGACCCACCTGTCAGCGGAGTCACCTAGTGCAG”, the binding signal was 4480 fluorescence intensity (a.u.).
Then “TTCTTGACGAGATTGGGCGCATGACAGTGAGCATTTTCCACGGAGTCACCTAGTGCAG”, with 16500 fluorescence intensity (a.u.).
On to “GGAATCTGGGAGGTGGGTGGGCCCCACGGCGGAGACTCCGCGGAGTCACCTAGTGCAG”, for which the binding signal is 3490 fluorescence intensity (a.u.).
The value for “CTATAAATTTAGCCAAACTTAACAAAATTTGACTAGAAAACGGAGTCACCTAGTGCAG” was 6080 fluorescence intensity (a.u.); that for “TTTTACGTGACCTAATTGAATGGAGATACTATGGAAGGAACGGAGTCACCTAGTGCAG” was 15800 fluorescence intensity (a.u.); that for “TATGACTAATGCTTGATTCGCAATAGATGAATCACCAAAACGGAGTCACCTAGTGCAG” was 4150 fluorescence intensity (a.u.).
The value for “TCTCTTATGATTTGTTTGTCTGATACTCTGTCTGATCGGTCGGAGTCACCTAGTGCAG” was 14400 fluorescence intensity (a.u.); that for “TTAATTGGATATATGATGTTGCAAATTTGCCTATTCAGAACGGAGTCACCTAGTGCAG” was 27000 fluorescence intensity (a.u.); that for “GTCATATAACCGATGATTGAGGGAGTAATATATATAAATACGGAGTCACCTAGTGCAG” was 5050 fluorescence intensity (a.u.).
Then “CATTTAATTTACAAACTATAAACGCACAAATATAAACAAACGGAGTCACCTAGTGCAG”, with 6690 fluorescence intensity (a.u.); and “CATGATTTTACAAGATCAGAGATCTATTATATCTAGTCTTCGGAGTCACCTAGTGCAG”, with 14900 fluorescence intensity (a.u.); and “TGATTTGATTTTCAGTTTTGCACCATGCGATCGATCGAGACGGAGTCACCTAGTGCAG”, with 4320 fluorescence intensity (a.u.).
For “CGTTTTGTTAAATTAAAATAAATTAACAAGCCCAATTGCACGGAGTCACCTAGTGCAG”, the binding signal was 22300 fluorescence intensity (a.u.).
“CTTCCAAATTGATGAAGATAGCAGTACTTCAGAAGCTTCCCGGAGTCACCTAGTGCAG”: the binding signal was 22200 fluorescence intensity (a.u.).
Turning to “GTTGCCAATTATTGTAGCTCACCAAACTACCCATTGTCCACGGAGTCACCTAGTGCAG”, the binding signal is 11000 fluorescence intensity (a.u.).
The value for “AACTAAAATTACATATGTAAATTTAGTTGATATGACATGTCGGAGTCACCTAGTGCAG” was 24600 fluorescence intensity (a.u.); that for “AATTAAAACTTAATTAATCACATGTTATTACTACCTCGTTCGGAGTCACCTAGTGCAG” was 15500 fluorescence intensity (a.u.); that for “TGTGTGTGTTTTAATTAATTAACATTTATATAAATATGAACGGAGTCACCTAGTGCAG” was 14100 fluorescence intensity (a.u.).
For the sequence “ATCCATAATCAATACTAATAGGGTTTTCATTGACCAGATACGGAGTCACCTAGTGCAG”, the binding signal was 9650 fluorescence intensity (a.u.).
“AAGAGTGACACTGCCAATTATTTAAGAACGGAGGGAGTACCGGAGTCACCTAGTGCAG”: the binding signal was 4900 fluorescence intensity (a.u.).
For “ATCTGCTAATTCAATGTTACTGGACTCTATTTATTCAGCCCGGAGTCACCTAGTGCAG”, the binding signal was 3190 fluorescence intensity (a.u.).
The value for “GCTCTCACAGTGATGGACAGTCCATAGAATCCCATAAAAGCGGAGTCACCTAGTGCAG” was 3210 fluorescence intensity (a.u.).
